B1: GPR68, Q15743 (parent)
chain: MGNITADNSSMSCTIDHTIHQTLAPVVYVTVLVVGFPANCLSLYFGYLQIKARNELGVYLCNLTVADLFYICSLPFWLQYVLQHDNWSHGDLSCQVCGILLYENIYISVGFLCCISVDRYLAVAHPFRFHQFRTLKAAVGVSVVIWAKELLTSIYFLMHEEVIEDENQHRVCFEHYPIQAWQRAINYYRFLVGFLFPICLLLASYQGILRAVRRSHGTQKSRKDQIQRLVLSTVVIFLACFLPYHVLLLVRSVWEASCDFAKGVFNAYHFSLLLTSFNCVADPVLYCFVSETTHRDLARLRGACLAFLTCSRTGRAREAYPLGAPEASGKSGAQGEEPELLTKLHPAFQTPNSPGSGGFPTGRLA

The least precise scores are not listed. Not listed are two conditions whose scores span a narrow range. Names with del lack the residues named; names with ins carry added residues between the positions named. For some assays here: The concentration of ogerin is not given here.

Variants of B1 are the subject of data set [1]. Description: cAMP reporter score (Enrich2 score, wild type = 0); higher = more signal; HEK293T, FACS bins.
In data set [2] the parent is B1. Kind of data set: surface expression score (Enrich2 score, wild type = 0); higher = more signal; HEK293T, FACS bins.

Regarding G263M, the cAMP reporter score was -0.11 in data set [1] (pH 5.5); 0.04 in data set [1] (pH 6); -0.03 in data set [1] (pH 6, modulator: ogerin); -0.08 in data set [1] (pH 6.5, modulator: ogerin). Besides, in data set [2], the surface expression score is -0.486.

Consider G263E, for which the cAMP reporter score in data set [1] (pH 5.5) was -0.292; in data set [1] (pH 6), 0.355; in data set [1] (pH 6, modulator: ogerin), -0.164; in data set [1] (pH 6.5, modulator: ogerin) it was -0.173. In addition, in data set [2], the surface expression score was -0.906.

As to G263K, the cAMP reporter score in data set [1] (pH 5.5) came out at 0.824; in data set [1] (pH 6), 0.804; in data set [1] (pH 6, modulator: ogerin), 0.664; in data set [1] (pH 6.5, modulator: ogerin), 1.47. The surface expression score in data set [2] came out at 0.545.

Consider G263Q, for which the cAMP reporter score in data set [1] (pH 5.5) is 0.917; in data set [1] (pH 6, modulator: ogerin) it was 1.4; in data set [1] (pH 6.5, modulator: ogerin) it was 1.65. Further, the surface expression score in data set [2] came to 0.353.

As to G263Y, the cAMP reporter score in data set [1] (pH 5.5) came to 0.778; in data set [1] (pH 6) it was 0.277; in data set [1] (pH 6, modulator: ogerin) it was 1.06; in data set [1] (pH 6.5, modulator: ogerin), 1.34. Besides, the surface expression score in data set [2] is 0.631.

As for G263A, the cAMP reporter score is -0.021 in data set [1] (pH 5.5); 0.723 in data set [1] (pH 6); 0.162 in data set [1] (pH 6, modulator: ogerin); 0.989 in data set [1] (pH 6.5, modulator: ogerin). Besides, the surface expression score in data set [2] came out at 0.137.

As for G263S, the cAMP reporter score in data set [1] (pH 5.5) is 0.403; in data set [1] (pH 6), 1.3; in data set [1] (pH 6, modulator: ogerin), 0.192; in data set [1] (pH 6.5, modulator: ogerin), -0.239. The surface expression score in data set [2] was -0.116.

For the variant G263I, the cAMP reporter score in data set [1] (pH 5.5) is 1.1; in data set [1] (pH 6), -0.281; in data set [1] (pH 6, modulator: ogerin), 1.69; in data set [1] (pH 6.5, modulator: ogerin), 0.147. Besides, the surface expression score in data set [2] is 1.61.

As for G263L, the cAMP reporter score in data set [1] (pH 5.5) was -0.297; in data set [1] (pH 6, modulator: ogerin) it was -0.038; in data set [1] (pH 6.5, modulator: ogerin), 0.15. In addition, in data set [2], the surface expression score is -0.241.

In the case of G263N, the cAMP reporter score in data set [1] (pH 5.5) was -0.69; in data set [1] (pH 6), -0.787; in data set [1] (pH 6, modulator: ogerin), -0.258; in data set [1] (pH 6.5, modulator: ogerin), -0.163. Further, the surface expression score in data set [2] was -0.305.

Turning to G263R, the cAMP reporter score was 0.797 in data set [1] (pH 5.5); 1.89 in data set [1] (pH 6); 0.633 in data set [1] (pH 6, modulator: ogerin). In addition, the surface expression score in data set [2] came to 1.17.

Take G263H: the cAMP reporter score is 0.294 in data set [1] (pH 5.5); -0.229 in data set [1] (pH 6); 0.534 in data set [1] (pH 6, modulator: ogerin); -0.07 in data set [1] (pH 6.5, modulator: ogerin). In addition, in data set [2], the surface expression score came to 0.446.

With G263F, the cAMP reporter score in data set [1] (pH 5.5) is 2.04; in data set [1] (pH 6) it was -0.522; in data set [1] (pH 6, modulator: ogerin) it was 0.464. Moreover, the surface expression score in data set [2] was found to be 2.04.

Consider G263P, for which the cAMP reporter score in data set [1] (pH 5.5) is -1.17; in data set [1] (pH 6) it was -1.16; in data set [1] (pH 6, modulator: ogerin), -1.07; in data set [1] (pH 6.5, modulator: ogerin), -0.918. The surface expression score in data set [2] was -1.33.

G263V: the cAMP reporter score in data set [1] (pH 5.5) was -0.003; in data set [1] (pH 6), 0.003; in data set [1] (pH 6, modulator: ogerin), 0.191; in data set [1] (pH 6.5, modulator: ogerin) it was 0.121. The surface expression score in data set [2] stood at 0.307.

As for G263W, the cAMP reporter score in data set [1] (pH 5.5) worked out at 1.22; in data set [1] (pH 6), 1.05; in data set [1] (pH 6, modulator: ogerin), 0.948; in data set [1] (pH 6.5, modulator: ogerin), 1.13. For the same variant, in data set [2], the surface expression score was found to be 1.

Turning to G263D, the cAMP reporter score in data set [1] (pH 5.5) is 0.136; in data set [1] (pH 6) it was -1.3; in data set [1] (pH 6, modulator: ogerin), 0.618; in data set [1] (pH 6.5, modulator: ogerin) it was 0.172. For the same variant, the surface expression score in data set [2] is -0.492.

As for F265_N266del, the cAMP reporter score was -1.22 in data set [1] (pH 5.5); -0.991 in data set [1] (pH 6); -2.07 in data set [1] (pH 6, modulator: ogerin); -0.698 in data set [1] (pH 6.5, modulator: ogerin). For the same variant, the surface expression score in data set [2] is -2.18.

Turning to H269del, the cAMP reporter score was -1.15 in data set [1] (pH 5.5); -1.21 in data set [1] (pH 6); -1.72 in data set [1] (pH 6, modulator: ogerin); -0.395 in data set [1] (pH 6.5, modulator: ogerin). The surface expression score in data set [2] was -2.77.

In the case of T275del, the cAMP reporter score in data set [1] (pH 5.5) is -0.791; in data set [1] (pH 6), 0.502; in data set [1] (pH 6.5, modulator: ogerin), -0.844. Moreover, the surface expression score in data set [2] was -2.09.

As for L273_L274del, the cAMP reporter score in data set [1] (pH 5.5) is -1.42; in data set [1] (pH 6), -0.975; in data set [1] (pH 6, modulator: ogerin), -1.38; in data set [1] (pH 6.5, modulator: ogerin), -1. In data set [2], the surface expression score was -0.752.

With D259_A261del, the cAMP reporter score in data set [1] (pH 5.5) is -1.31; in data set [1] (pH 6), -1.5; in data set [1] (pH 6, modulator: ogerin), -0.931; in data set [1] (pH 6.5, modulator: ogerin), -1.91. For the same variant, in data set [2], the surface expression score was -2.17.

Consider L274_T275del, for which the cAMP reporter score in data set [1] (pH 5.5) was -1.8; in data set [1] (pH 6), -1.27; in data set [1] (pH 6, modulator: ogerin), -2.23; in data set [1] (pH 6.5, modulator: ogerin) it was -1.17. Moreover, the surface expression score in data set [2] is -2.56.

For the variant S271_L272insGSG, the cAMP reporter score was -1.69 in data set [1] (pH 5.5); -1.36 in data set [1] (pH 6); -2.14 in data set [1] (pH 6, modulator: ogerin); -0.942 in data set [1] (pH 6.5, modulator: ogerin). Further, the surface expression score in data set [2] is -2.01.

Regarding N266_A267insGS, the cAMP reporter score is -1.01 in data set [1] (pH 5.5); -1.29 in data set [1] (pH 6); -1.38 in data set [1] (pH 6, modulator: ogerin); -1.16 in data set [1] (pH 6.5, modulator: ogerin). Also, the surface expression score in data set [2] is -2.15.

On to L273_L274insG, for which the cAMP reporter score was -1.42 in data set [1] (pH 5.5); -0.815 in data set [1] (pH 6); -1.51 in data set [1] (pH 6, modulator: ogerin); -0.559 in data set [1] (pH 6.5, modulator: ogerin). Also, the surface expression score in data set [2] is -2.03.

For the variant A267_Y268del, the cAMP reporter score in data set [1] (pH 5.5) was -0.06; in data set [1] (pH 6), -0.232; in data set [1] (pH 6, modulator: ogerin) it was -1.75; in data set [1] (pH 6.5, modulator: ogerin), -0.858. Also, the surface expression score in data set [2] was -3.36.

Regarding Y268_F270del, the cAMP reporter score is -0.956 in data set [1] (pH 5.5); -1.99 in data set [1] (pH 6); -1.76 in data set [1] (pH 6, modulator: ogerin); -1.44 in data set [1] (pH 6.5, modulator: ogerin). Also, the surface expression score in data set [2] was -1.88.

With Y268del, the cAMP reporter score in data set [1] (pH 5.5) was -0.203; in data set [1] (pH 6), -1.34; in data set [1] (pH 6.5, modulator: ogerin), -1.45. The surface expression score in data set [2] is -2.55.

Regarding Y268_H269insGS, the cAMP reporter score in data set [1] (pH 5.5) is -0.851; in data set [1] (pH 6), 0.176; in data set [1] (pH 6, modulator: ogerin), -0.736; in data set [1] (pH 6.5, modulator: ogerin), -0.556. In addition, in data set [2], the surface expression score is -2.

T275_S276insGSG: the cAMP reporter score is -1.23 in data set [1] (pH 5.5); -0.221 in data set [1] (pH 6); -1.18 in data set [1] (pH 6, modulator: ogerin); -0.814 in data set [1] (pH 6.5, modulator: ogerin). In data set [2], the surface expression score was -2.16.

For the origin of these results see the GPR68 mutational scans of Howard et al. (2025).
